Among all 150,000 compounds or so, about 540 (0.36%) showed an effect of 50% or more. This is one part of the list.

This experiment relates to Plasmodium falciparum. The experiment can be described thus: Primary screen in NF54 nanoGlo assay, in single point, at 2uM, 72h; a lower Z score goes with more inhibition. It is filed as functional, Erythrocyte. The settings on record: timepoint 72 hour.
For `CCn1c(CN2CCC[C@H](C(=O)c3cccc(Cl)c3)C2)nc2ccccc21`, the % Inhibition – broadly, the change of the read-out against control, counted positive when it falls – is -5% and the Z score was determined as 0.96.

Turning to `CCc1cccc(OCCCNC(C)(C)C)c1`, the “% Inhibition” value is -7% and the Z score is reported as 1.

Turning to `CN(C)Cc1cc2n(n1)CCN(c1nccc(N3CCC[C@H](O)C3)n1)C2`, the “% Inhibition” value is recorded as -3% and the Z score is recorded as 0.53.

As to `CC(C)[C@H](Cn1ccnn1)NC(=O)C(c1ccccc1)c1ccccc1`, the “% Inhibition” value was 17% and the Z score is reported as -2.18.

Consider `C/C(=C\c1ccco1)CN1CCC[C@H](CNC(=O)c2ccc3c(c2)OCO3)C1`, for which the “% Inhibition” value is -11% and the Z score was 1.47.

With `CC(C)CS(=O)(=O)NCCc1ccsc1`, the “% Inhibition” value is listed as -15% and the Z score is 2.52.

For the molecule `O=C(NC1CCOCC1)N(Cc1ccccc1)[C@H]1CCS(=O)(=O)C1`, the “% Inhibition” value is listed as -12% and the Z score worked out at 1.14.

Regarding `O=C(NCCC1CCCCCC1)c1cc2n(n1)C[C@@H](O)CNC2=O`, the “% Inhibition” value is on record as -9% and the Z score is reported as 1.24.

Regarding `CN(Cc1sccc1Cl)C1(CO)CCOCC1`, the “% Inhibition” value is reported as 35% and the Z score was -3.92.

In the case of `O=C(NCc1cccc(F)c1)c1nc(-c2ccc3c(c2)OCO3)no1`, the “% Inhibition” value is listed as 1% and the Z score is -0.18.

As to `O=C1C2CCCCC2C(=O)N1CC(O)COc1c(Cl)cccc1Cl` (stereo not drawn), the “% Inhibition” value is reported as -9% and the Z score is on record as 0.88.

In the case of `COc1cc(C(=O)NCCc2c[nH]c3ccccc23)on1`, the “% Inhibition” value amounted to 7% and the Z score is reported as -1.04.

Regarding `Cc1cncc(C(=O)NC[C@H]2CN(CCc3ccccc3)C(=O)CO2)c1`, the “% Inhibition” value was -7% and the Z score worked out at 0.87.

On to `COc1ccc(CN2CC[C@H](c3nnc(-c4ccc(Cl)cc4)o3)C2)cc1`, for which the “% Inhibition” value was found to be 7% and the Z score is -0.87.

On to `O=C(Cc1cccc(F)c1)Nc1ccnn1[C@H]1CCS(=O)(=O)C1`, for which the “% Inhibition” value is given as -5% and the Z score worked out at 0.92.

For `O=C(C1CCCN(C(=O)C2CC2c2ccccc2)C1)N1CCCC1` (stereo not drawn), the “% Inhibition” value was -3% and the Z score was 0.47.

`FC(F)(F)c1cnccc1NCCc1nc2c(s1)COCC2`: the “% Inhibition” value is -16% and the Z score was 2.43.

As for `Cc1ccc2c(c1)[C@@](O)(CC(=O)c1ccc(C3CCCCC3)cc1)C(=O)N2`, the “% Inhibition” value is on record as -2% and the Z score is 0.23.

For the molecule `O=C(N[C@H]1C[C@@H](c2ccncc2)O[C@@H](C2CCCCC2)C1)c1ccccc1`, the “% Inhibition” value is -12% and the Z score is 1.59.

Turning to `COc1cc(C(=O)NCC(=O)NC(C)(C)C)cc(OC)c1OC`, the “% Inhibition” value stood at 5% and the Z score is reported as -0.86.

In the case of `O=C1CC(c2ccc(NS(=O)(=O)N3CCCCC3)cc2)CC(=O)N1`, the “% Inhibition” value stood at 1% and the Z score was -0.16.

For the molecule `COc1ccc(CN2C(=O)N(Cc3ccccc3)c3ccccc3S2(=O)=O)cc1`, the “% Inhibition” value is 1% and the Z score was -0.09.

`Cc1cc(C(=O)NC2CC(O)(C(F)(F)F)C2)ns1` (stereo not drawn): the “% Inhibition” value came to 11% and the Z score is listed as -1.38.

As for `CCN1C[C@H](CN(C)C(=O)NC2CCC(O)CC2)Oc2ccccc21` (stereo partly drawn), the “% Inhibition” value amounted to 5% and the Z score is listed as -0.91.
